In the supplement of paper PMC5499739:
In all, about 16,000 sequences were measured (“Z-score”: median about -0.37, highest 2% from about 3.1 on). This is one part of the list.

test system: RBM10 RRM1-ZnF-RRM2 (GST-tagged construct); assay: RNAcompete 7-mer binding Z-score; higher = stronger binding preference
Procedure, shortened: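 Bound RNA was identified by microarray hybridisation after GST-tagged RBM10 constructs (20 pmol) had been mixed with 1.5 nmol of a designed pool of 241 399 RNAs up to 41 nt, transcribed from microarray-derived DNA templates. Binding ran for 30 min at 4°C in 1 ml Hepes pH 7.8 buffer with KCl, NaCl, glycerol, DTT, BSA and glutathione Sepharose beads, with four 2-min washes at 4°C afterwards. For every heptamer motif, a one-sided Z-score for enrichment was computed across the probes that contained it.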

| Sequence | RNAcompete 7-mer binding Z-score |
| --- | --- |
| GGUGAUC | 1.07 |
| CCGGCAC | -0.388 |
| GAUAAAU | 0.0204 |
| ACCAACC | -0.726 |
| GGUCCCA | -0.315 |
| GUGGCGA | 2.29 |
| AAAAAGG | 2.19 |
| CGACCGG | 0.399 |
| GAAAAUU | -0.111 |
| AGUGCAG | 0.683 |
| UAAAUAC | -0.369 |
| CCCUGCU | -0.959 |
| CACCACA | -0.548 |
| CGGAAUC | -0.0816 |
| UCUAGGA | 0.0568 |
| ACGUAAC | -0.154 |
| UUGAAAA | -0.511 |
| UCUCUAU | -0.77 |
| GCCGUGU | -0.322 |
| GUUACGU | -0.00877 |
| GACAAAA | 0.257 |
| CCGCCAA | -0.814 |
| ACGGCAA | 0.57 |

| Sequence | RNAcompete 7-mer binding Z-score |
| --- | --- |
| UUACACG | -0.511 |
| UGUACAC | -0.296 |
| UUCCCCU | -0.653 |
| GGAGCAG | 2.09 |
| AAUCUGA | -0.679 |
| GGUGCUU | 0.465 |
| UUUAGCG | -0.511 |
| CAGCUCU | -0.748 |
| GCUGCAU | -0.409 |
| GGCCAAA | 0.0714 |
| GGCUCAG | 0.213 |
| UAUACUG | -0.493 |
| UGACCGU | -0.694 |
| AUCAGUC | -0.442 |
| GUCACUC | -0.624 |
| CACAAUA | -0.388 |
| AUGCGAC | -0.0525 |
| GCUUCGG | -0.238 |
| CAAGUAA | -0.162 |
| ACUAUGU | -0.526 |
| GGGCAGA | 2.25 |
| CACUUGC | -0.857 |
| GGCACCA | 0.217 |

| Sequence | RNAcompete 7-mer binding Z-score |
| --- | --- |
| UGUAGAC | -0.0415 |
| GGAUGAG | 2.91 |
| CGCUUCU | -1.01 |
| CAUUUAU | -0.919 |
| GGCGCUA | 0.243 |
| UGCACAU | -0.362 |
| ACGUAAA | -0.0306 |
| GUUGGAU | 1.56 |
| GUUACUG | -0.107 |
| CGUAAUU | -0.464 |
| GCCCAGC | -0.661 |
| AGACACU | -0.93 |
| GGUAAGA | 2.22 |
| UCGUUGG | 0.399 |
| GUGGCAA | 1.68 |
| GGACCUG | -0.318 |
| GAACCAA | -0.198 |
| UACAUGC | -0.373 |
| CCUCUAG | -0.81 |
| CUAGAUU | -0.661 |
| CUGUAUG | -0.515 |
| GCAUGAG | 0.752 |
| AUUUCCC | -0.828 |

| Sequence | RNAcompete 7-mer binding Z-score |
| --- | --- |
| CCCACAG | -0.635 |
| CUCCUCG | -0.748 |
| GUCCCUA | -0.748 |
| GUCCUUU | -0.752 |
| UAUAAUG | 0.0714 |
| UAUAUGG | 0.924 |
| GCGUCGC | -0.0598 |
| AGGGUUC | 0.996 |
| AAAAUAA | -0.369 |
| UUAUGUU | -0.537 |
| CCCUCAG | -0.81 |
| CGGGUAC | 1.47 |
| AGCGAGA | 0.782 |
| UGAGUGA | 0.949 |
| UAAAUGU | -0.391 |
| UAGAAUA | -0.0925 |
| CUUUAUG | -0.927 |
| UUGCGAA | -0.246 |
| GUCCAGU | -0.337 |
| GCACCCU | -0.704 |
| UCUUCUG | -0.712 |
| CUUUCAG | -0.628 |
| AACCUUC | -0.839 |

| Sequence | RNAcompete 7-mer binding Z-score |
| --- | --- |
| ACGAGCC | -0.613 |
| CACCAUG | -0.362 |
| CGGGACG | 1.5 |
| GGUUAAG | 1.95 |
| UUUUUCU | -0.744 |
| GACGGAC | 0.454 |
| CGCGACG | -0.602 |
| CCAAGGA | 0.556 |
| CCCCCGA | -0.315 |
| UGACAUU | -0.606 |
| AAGGCUU | -0.0743 |
| GCCAGUA | -0.0889 |
| ACCAAGG | 0.756 |
| CGCCAGA | -0.497 |
| CAUUGAC | -0.442 |
| UCGAUAA | -0.508 |
| CAUUCGA | -0.744 |
| UAGCGAU | -0.133 |
| GAGGGAA | 3.6 |
| AAAAUGA | -0.111 |
| CUCUCGU | -0.803 |
| GCGCCUC | -0.672 |
| CGCGACC | -0.573 |

| Sequence | RNAcompete 7-mer binding Z-score |
| --- | --- |
| CAAAUCU | -0.781 |
| UCCUUGU | -0.803 |
| UCUUUCC | -0.781 |
| CGAGGCC | -0.165 |
| GUGACUU | -0.267 |
| UACUGCU | -0.726 |
| GCGGUAU | 0.574 |
| CUUAAAA | -0.737 |
| GGCAUUA | 0.275 |
| GCGAGUA | 0.716 |
| UCGGUAU | -0.078 |
| UGGAAUA | 1.27 |
| AGGCUUU | -0.657 |
| CAAGCCU | -0.806 |
| UUGACGG | 0.399 |
| GAUUAAG | 0.691 |
| CUAUGCU | -0.839 |
| UUCGAAA | -0.595 |
| AUUGUAU | -0.471 |
| AACUUGA | -0.69 |
| ACCGUAC | -0.686 |
| ACAUUCA | -0.533 |
| AGGUUCU | -0.384 |

| Sequence | RNAcompete 7-mer binding Z-score |
| --- | --- |
| AGCUCUG | -0.734 |
| UGAAGGU | 2.14 |
| UCUACUA | -0.759 |
| UGGGCCA | 1.07 |
| CCGUGCU | -0.628 |
| ACGGAGA | 1.3 |
| GUGCCAA | -0.0343 |
| AUAGGCU | 0.25 |
| GGUGUAU | 1.18 |
| AACUCCA | -0.621 |
| CUCUUCA | -0.89 |
| UAAGUGC | -0.3 |
| GAUAGUU | 0.0604 |
| CAUGCAG | -0.00877 |
| GCAUAUU | -0.384 |
| UGUAAUC | -0.406 |
| UAGUGAU | 0.246 |
| GUCCUAG | -0.504 |
| AAGCUAG | -0.256 |
| CAGCGAG | 0.763 |
| ACACACA | -0.227 |
| CAGUUUA | -0.657 |
| UUUACUU | -0.803 |

| Sequence | RNAcompete 7-mer binding Z-score |
| --- | --- |
| CUACGGA | 0.101 |
| CACAUUU | -0.985 |
| UUGCGGG | 1.2 |
| CAGAAAC | -0.235 |
| CCUCCUC | -0.759 |
| UUUGAUU | -0.471 |
| AACUAGU | -0.329 |
| CCGCAAG | -0.715 |
| CGUGCAA | -0.118 |
| CUUUUGA | -0.755 |
| GUUGAGG | 3.13 |
| GACGUAU | -0.118 |
| CGAGUCA | -0.224 |
| GAAGAGG | 2.94 |
| CAAAAAU | -0.46 |
| UCGGUUA | -0.289 |
| UCAGAGA | -0.067 |
| AAAUCAU | -0.46 |
| ACCAUGU | -0.555 |
| CGGCUGU | -0.377 |
| UCGGACA | 0.104 |
| CUCUGUG | -0.69 |
| CAGUUGG | 0.538 |
